For 167 variants, self-cleavage results are on record in the RNAGym collection of RNA variant scans (doi:10.7554/elife.90254).

Read counts are not given, so values of variants with three or more changes are uncertain.

The labels stand for the following.
B1: LINE1-mini (parent)
chain: GGCAGAGCUCAACACAGCGUGGCAAAGUGGCUGUGGCUAGACUGCC

Variants of B1 are the subject of the data set. The data set is described as follows: self-cleavage, relative activity (ratio to wild type); higher = more cleavage; in vitro, sequencing; the parent is a self-cleaving ribozyme.
As to G19U U34A C37A, the self-cleavage is 0.04.

Take G19U U34A C37G: the self-cleavage was determined as 0.04.

In the case of U20C G21C C31G, the self-cleavage was 0.06.

Consider U20A U32A U38G C42A, for which the self-cleavage is 0.01.

Regarding U20C U28A G35U G36U, the self-cleavage worked out at 0.12.

In the case of U20A A25C G30C, the self-cleavage was 0.97.

Take U20C U32G U34A: the self-cleavage was 0.02.

In the case of U20A G22U G27C G29C, the self-cleavage came to 0.14.

In the case of U20C A25G G29A G33U, the self-cleavage came to 0.04.

As for U20C G40U U43A, the self-cleavage turned out to be 0.03.

With G19U C37U G40A A41C, the self-cleavage was determined as 0.01.

Turning to U20A G40C C42U G44A, the self-cleavage is 0.01.

In the case of U20C G40C C42U, the self-cleavage was found to be 0.1.

Take U20A A25U G30U U32C: the self-cleavage amounted to 0.05.

For the variant G19U C31A U34A, the self-cleavage was 0.04.

As to U20C A24G U28A, the self-cleavage turned out to be 0.64.

As for U20A A25U U28G, the self-cleavage came out at 0.09.

Regarding U20A A26U U28G, the self-cleavage was determined as 0.09.

As for U20A G30U G36U C37A A39C, the self-cleavage was found to be 0.09.

In the case of U20C A26C G35C A39U U43G, the self-cleavage amounted to 0.01.

Take G19U C31A A39G: the self-cleavage is 0.

With U20C U28G A41G, the self-cleavage is 0.87.

On to G19C U38C A41G, for which the self-cleavage is 0.11.

With U20G C23A U28A U34G C37U G40C, the self-cleavage is 0.03.

Regarding U20A G21C G22C U38A C45A, the self-cleavage is 0.01.

Consider G19U U34G A39C, for which the self-cleavage was 0.01.

In the case of G19U A26U U32G G35U C42U, the self-cleavage came out at 0.03.

Turning to U20A G36C C42G, the self-cleavage was found to be 0.02.

For the variant G19U C23U U34A G40U, the self-cleavage was 0.02.

With U20C G35C C37U, the self-cleavage was 0.06.

As to G19U G22C A26G C42G, the self-cleavage is 0.01.

For the variant G19U G33U C37G C46A, the self-cleavage amounted to 0.03.

As for U20A G35U C45G, the self-cleavage stood at 0.07.

Regarding U20C G35A C46U, the self-cleavage came to 0.01.

U20A A25C G36C U38A: the self-cleavage worked out at 0.01.

Consider U20C G22U C42G, for which the self-cleavage was found to be 0.01.

As to U20A G21C A25C G27C C42A U43G, the self-cleavage worked out at 0.

Consider U20C A26C A41C, for which the self-cleavage turned out to be 0.09.

With G19U G27C G29U G44C, the self-cleavage came out at 0.15.

Consider G19U G27A G33C G44A, for which the self-cleavage stood at 0.05.

For U20A C23A G44A, the self-cleavage came to 0.34.

For the variant U20A G21A C45G, the self-cleavage turned out to be 1.33.

As to G19U A24G C31U U34A, the self-cleavage amounted to 0.01.

Consider U20A G21C C37A, for which the self-cleavage worked out at 0.02.

Consider U20A C23A A26G G27U, for which the self-cleavage came to 0.61.

As to U20A G33U A41G C42G C45A, the self-cleavage was found to be 0.02.

As for U20A G36U C37U A39C, the self-cleavage came out at 0.02.

U20G C37G G40C C42A: the self-cleavage is 0.07.

For G19U G21C G27U U28G G29A C42G, the self-cleavage was determined as 0.06.

On to G19U G33U C37U, for which the self-cleavage came out at 0.05.

On to U20A A24C A25U G40U, for which the self-cleavage is 0.04.

U20C C37A C45U: the self-cleavage was 0.06.

U20C C23U G30A C42A U43G: the self-cleavage is 0.

Regarding U20G C23G G27C G33C, the self-cleavage stood at 0.16.

For the variant U20C G21U C45U C46G, the self-cleavage amounted to 0.55.

As for G19U G27A G40U, the self-cleavage came out at 0.05.

Consider G19U U28C A39C, for which the self-cleavage was 0.04.

Take G19U C23G A24C A25U G29C: the self-cleavage was 0.06.

Take U20A G21U A24C C31A G40U: the self-cleavage came to 0.03.

Take U20G C31G G40A: the self-cleavage was 0.03.

For U20A G21A A24U C31U, the self-cleavage turned out to be 0.04.

Take G19U G21C C42G: the self-cleavage is 0.01.

Regarding U20A U38A C42G C46U, the self-cleavage was determined as 0.02.

In the case of U20C G21C U38A, the self-cleavage amounted to 0.07.

Turning to U20C G22C U32C G35U, the self-cleavage worked out at 0.61.

As to U20C G22U G35U, the self-cleavage is 0.02.

In the case of G19U G22A U28A, the self-cleavage was found to be 0.29.

Regarding U20C U34G G40A, the self-cleavage turned out to be 0.03.

Turning to G19U U28A G30C C46U, the self-cleavage came out at 0.76.

On to U20A A26U G30C, for which the self-cleavage is 0.31.

For the variant U20A G30U C37G, the self-cleavage turned out to be 0.

As to G19U C23G A41G G44C, the self-cleavage was 0.01.

As for G19C U34A C37G C42A, the self-cleavage was found to be 0.04.

In the case of G19U A25U G44C, the self-cleavage stood at 0.95.

Consider U20C G33A C45G, for which the self-cleavage amounted to 0.09.

With U20A C31G A39C, the self-cleavage is 0.03.

As to U20A A25G G44C, the self-cleavage came out at 0.28.

For G19U G21C U28A, the self-cleavage amounted to 1.59.

As for U20G A25C A26C G27A U34A, the self-cleavage worked out at 0.08.

Consider G19U U20C G27U U28A, for which the self-cleavage is 0.32.

For the variant U20C G33U A39C, the self-cleavage was 0.09.

Turning to G19U U34A G40A, the self-cleavage came to 0.03.

Turning to G19U C37U C46A, the self-cleavage is 0.03.

On to U20C G35C G44U, for which the self-cleavage was 0.04.

G19U G36A A39U C46U: the self-cleavage is 0.09.

Turning to U20G C23U A25C C37U, the self-cleavage was determined as 0.01.

For U20A U32G U34G C37G, the self-cleavage was 0.02.

Take U20G C31U U38C: the self-cleavage was 0.03.

For U20G C31U U38A, the self-cleavage stood at 0.11.

Consider U20G A25G C42G, for which the self-cleavage was determined as 0.02.

For the variant U20A G21U C23U A26G C42A, the self-cleavage was 0.28.

In the case of U20C A39G C42A, the self-cleavage was 0.02.

For G19U G29C A41G, the self-cleavage is 0.02.

U20C G27C U28C: the self-cleavage came to 0.12.

With U20C A25C U32G G33C C37U, the self-cleavage came to 0.

On to U20C A24C A26G, for which the self-cleavage worked out at 0.24.

Regarding U20C G27A U43G, the self-cleavage came out at 0.

As to U20C A25U G36A, the self-cleavage is 0.21.

U20C U28G A39G G40C A41C: the self-cleavage was determined as 0.06.

For the variant U20A A25C U28G A39G G44C, the self-cleavage was determined as 0.03.

Regarding G19U G22U G40C C42G, the self-cleavage is 0.

For U20C C23G A26G U28C C42A, the self-cleavage turned out to be 0.1.

For the variant G19U G27A U28C G29U G36C, the self-cleavage is 0.08.

As to G19U G29C G40U C46A, the self-cleavage is 0.1.

Turning to U20G C31G G36U, the self-cleavage amounted to 0.01.

For the variant U20G A24U U28G C46U, the self-cleavage was determined as 0.23.

Regarding G19U G22A G29U, the self-cleavage was found to be 2.6.

As to U20A G21C G36U, the self-cleavage was 0.05.

For U20A G21C C46U, the self-cleavage came out at 0.29.

Take U20A C31G A41U C42G: the self-cleavage was 0.03.

Regarding G19U U20A A25U C37G, the self-cleavage amounted to 0.04.

Turning to U20A A25U A41C, the self-cleavage was 0.04.

For U20C U34G C37G G40U, the self-cleavage was found to be 0.

For U20G C23G U43C, the self-cleavage was found to be 0.09.

U20C C23U G29C C31U U34C: the self-cleavage was determined as 0.05.

As to U20A G30U A39C, the self-cleavage turned out to be 0.28.

For the variant U20C U32A G44A C46G, the self-cleavage stood at 0.01.

Consider G19U U28C G30C C37A, for which the self-cleavage was found to be 0.01.

As to G19U U32A C46U, the self-cleavage was 0.01.

On to U20C C23A G30C C45A C46G, for which the self-cleavage is 0.19.

Consider U20C G22A A24C A26U G30C G35A, for which the self-cleavage stood at 0.07.

In the case of U20C U34G G36A U38C, the self-cleavage worked out at 0.07.

On to U20C G22A G35C, for which the self-cleavage came to 0.06.

In the case of U20A G21U U32C G44C C45G, the self-cleavage was 0.03.

Turning to G19U A26G G33C G36A, the self-cleavage was 0.09.

Regarding U20A G30A C42U C46U, the self-cleavage was 0.07.

On to U20C G22A G44U C45A, for which the self-cleavage worked out at 0.03.

Take G19U G21A G35U G36C: the self-cleavage was 0.26.

Take G19U G22C A24U U28C: the self-cleavage was found to be 0.17.

As to G19U G22U G30A G36C G40U, the self-cleavage came out at 0.08.

For G19U G29C C37G, the self-cleavage amounted to 0.02.

Take U20A U32G C46U: the self-cleavage was found to be 0.04.

As for U20A C23U A24G G40U, the self-cleavage amounted to 0.06.

Take U20C C23A U34C A41C U43G: the self-cleavage is 0.

For U20A G27A C31G, the self-cleavage worked out at 0.2.

Turning to U20A G21C G22A, the self-cleavage was determined as 0.46.

Regarding U20C U32G G35U G40U, the self-cleavage turned out to be 0.03.

Regarding G19U U28G A39C, the self-cleavage was found to be 0.03.

As to U20A G21A C37G, the self-cleavage was determined as 0.01.

For the variant G19U A24G U28C, the self-cleavage stood at 0.83.

For G19U U28A G33A, the self-cleavage amounted to 0.26.

Regarding U20A U28A U32G, the self-cleavage stood at 0.13.

Regarding G19U A25C U38G C46G, the self-cleavage amounted to 0.

U20C G36A C37G: the self-cleavage was 0.04.

Consider G19U A25U C46G, for which the self-cleavage turned out to be 0.13.

Turning to U20C A25C G33C, the self-cleavage is 0.04.

Regarding U20A A41C G44A, the self-cleavage was 0.08.

Turning to U20C C23U C31G G35A C37G, the self-cleavage was 0.02.

Turning to G19U G22C C31U A41G, the self-cleavage was 0.16.

Regarding U20A C23U A26C G29U C45G, the self-cleavage turned out to be 0.

Turning to U20G C31G A39C, the self-cleavage turned out to be 0.02.

With U20A A25C G27U, the self-cleavage amounted to 0.53.

On to G19U A26G C45A C46G, for which the self-cleavage turned out to be 0.03.

As for G19U C23A U32A U38G, the self-cleavage was determined as 0.01.

In the case of G19U G40C G44C, the self-cleavage was 0.01.

Take U20C C23U U32A: the self-cleavage is 0.06.

In the case of U20A C23U G27U, the self-cleavage was 2.

Turning to G19U G35A A39C, the self-cleavage came to 0.04.

As to G19U A25C G29A C37G, the self-cleavage is 0.

G19U G27U G40C C45A: the self-cleavage worked out at 0.01.

On to G19U A26G C45A, for which the self-cleavage is 0.69.

As to G19U G22A U32C, the self-cleavage was found to be 0.63.

As for U20C A41G C46A, the self-cleavage was 0.46.

For G19U G22U C31A U32C C46U, the self-cleavage came out at 0.1.

With G19C U38C C45U, the self-cleavage amounted to 0.19.

For the variant U20C G22A U43C, the self-cleavage is 0.02.

For the variant U20A U32G G40A, the self-cleavage was determined as 0.05.
